Laboratory results: PMC4336329 (PLoS ONE, 2015)
The whole screen tested about 310,000 compounds, of which about 14,000 (4.5%) showed an effect of 50% or more. The effect is printed as a negative number. Some of the results follow.

Biological target: human ether-à-go-go-related gene (hERG) potassium channel (human, UniProt Q12809)
Test: primary screen, population patch clamp on CHO cells stably expressing hERG
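Also: peak tail current of the secondary pulse compared with the same well before compound.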

Chain of human ether-à-go-go-related gene (hERG) potassium channel (Q12809 whole entry, looked up): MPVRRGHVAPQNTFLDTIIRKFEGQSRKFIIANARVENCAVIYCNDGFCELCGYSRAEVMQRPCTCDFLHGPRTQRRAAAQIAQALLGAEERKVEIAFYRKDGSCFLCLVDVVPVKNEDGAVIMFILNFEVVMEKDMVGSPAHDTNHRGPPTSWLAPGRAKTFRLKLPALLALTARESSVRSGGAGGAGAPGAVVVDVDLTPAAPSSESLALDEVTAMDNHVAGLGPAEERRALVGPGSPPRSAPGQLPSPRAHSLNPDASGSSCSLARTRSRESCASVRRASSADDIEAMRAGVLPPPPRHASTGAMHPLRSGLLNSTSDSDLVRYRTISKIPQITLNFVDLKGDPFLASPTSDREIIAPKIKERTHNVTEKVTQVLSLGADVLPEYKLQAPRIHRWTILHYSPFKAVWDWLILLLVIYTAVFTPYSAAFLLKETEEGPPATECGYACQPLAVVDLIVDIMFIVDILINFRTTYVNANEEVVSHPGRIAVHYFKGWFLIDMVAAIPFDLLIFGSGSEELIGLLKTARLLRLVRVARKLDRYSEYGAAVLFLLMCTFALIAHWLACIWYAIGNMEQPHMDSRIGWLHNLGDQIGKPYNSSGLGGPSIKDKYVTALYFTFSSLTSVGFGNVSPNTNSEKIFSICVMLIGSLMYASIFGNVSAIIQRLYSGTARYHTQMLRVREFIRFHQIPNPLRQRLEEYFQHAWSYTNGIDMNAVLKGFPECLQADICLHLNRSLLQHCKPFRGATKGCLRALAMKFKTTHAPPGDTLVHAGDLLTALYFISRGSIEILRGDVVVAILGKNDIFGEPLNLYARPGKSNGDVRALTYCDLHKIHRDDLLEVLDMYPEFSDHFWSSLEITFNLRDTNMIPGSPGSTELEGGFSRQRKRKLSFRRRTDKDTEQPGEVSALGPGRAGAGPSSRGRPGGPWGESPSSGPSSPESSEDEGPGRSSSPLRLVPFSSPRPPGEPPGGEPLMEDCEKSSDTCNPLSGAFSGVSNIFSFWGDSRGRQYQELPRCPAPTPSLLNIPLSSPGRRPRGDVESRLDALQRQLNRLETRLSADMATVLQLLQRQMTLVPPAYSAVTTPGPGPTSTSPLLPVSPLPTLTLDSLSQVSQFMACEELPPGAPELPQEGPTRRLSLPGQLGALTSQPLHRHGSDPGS

SMILES | hERG current change (%, negative = inhibition) at 10uM [%]
COCCSc1nnc(NC(=O)Cc2cccs2)s1 | 6.61
COc1cc(Br)cc(CNc2ccc(F)c([N+](=O)[O-])c2)c1O | 5.85
CCOc1ccc(NC(=O)Cn2nnc(-c3ccccc3NC(=O)CC)n2)cc1 | -1.33
COC(=O)N1c2ccccc2C=Cc2ccccc21 | 17.5
CCCSc1nnc(-c2c[nH]c3ccccc23)n1CC | -11.6
CCOc1ccccc1Oc1ccc(C(F)(F)F)cn1 | 13.3
O=c1[nH]c(C2CCN(S(=O)(=O)c3ccc4c(c3)OCCO4)CC2)nc2c1nnn2Cc1c(F)cccc1Cl | 5.79
COc1ccc2nc(SCC(=O)Nc3ccccc3C)[nH]c2c1 | -9.44
O=S1(=O)C=C(SCc2ccc(Cl)c(Cl)c2)Nc2ccccc21 | -14.5
COc1ccc(CC(C)CC(=O)Nc2ccc(OC)cc2)cc1 (stereo not drawn) | 9.05
COc1ccc(-c2[nH]c(-c3ccc(C(=O)O)cc3)nc2-c2ccccc2)cc1 | 5.89
O=C(NCC(c1cccs1)N1CCOCC1)c1cc(S(=O)(=O)N2CCOCC2)ccc1F (stereo not drawn) | -25.4
C/C=C/c1cc(OC)c2c(c1)[C@H](C)[C@@H](c1ccc(O)c(OC)c1)O2 | 15.9
COc1ccccc1C(=O)CC(=O)c1ccccc1 | 15.2
O=C(NC(Cc1ccccc1)C(=O)O)/C(=C/c1ccc(Cl)cc1)NC(=O)c1ccccc1 (stereo not drawn) | 13.2
Cc1cccc(-c2nnn3c2nc(NCCc2ccc(S(N)(=O)=O)cc2)c2ccccc23)c1 | 23.3
O=C(O)CC(NC(=O)OCc1ccccc1)c1ccc(Br)cc1 (stereo not drawn) | 20.2
CN(N)c1nc(-c2ccccc2)nnc1C(F)(F)F | 9.96
COC(CSc1nc(N)c2c3c(sc2n1)CN(C)CC3)OC | 5.88
Cc1ccc(CNC(=O)C23CN(Cc4ccccc4)CC2C(c2cccc([N+](=O)[O-])c2)=NO3)cc1 (stereo not drawn) | -0.125
O=C(Nc1nncs1)c1cccc(S(=O)(=O)N2CCCCC2)c1 | -15.7
COc1ccc(NC(=O)COC(=O)c2ccncc2)c(OC)c1 | -5.88
Cc1ccc(C(c2sc3nc(C)nn3c2O)N2CCN(c3ccccc3F)CC2)cc1 (stereo not drawn) | -37.4
O=C(c1ccco1)N1CCN(C(=O)C(Cc2ccccc2)NS(=O)(=O)c2cccs2)CC1 (stereo not drawn) | -28.3
